Measurements: patent US20210138025A1, “CATIONIC PEPTIDES WITH IMMUNOMODULATORY AND/OR ANTI-BIOFILM ACTIVITIES” (priority 2018, published 2021)
Part of at least one peptide drawing is inferred or uncertain, most often the ends. Some compounds share one wording; it may come from a single statement. No end group written: not given here.

Assays:
[1] = system: S. aureus (MRSA SAP0017); assay type: cell-based, Staphylococcus aureus; details: SPOT synthesized peptide, ~12.5 μM, clinical MRSA strain, crystal violet assay
Experimental: Methods of assessment of anti-biofilm activity: MRSA S. aureus strain SAP0017 biofilm formation was initially analyzed using a static abiotic solid surface assay as described elsewhere (de la Fuente-Nunez et al., 2012) and shown graphically in FIG. 2. Dilutions (1/100) of overnight cultures were incubated in BM2 biofilm-adjusted medium [62 mM potassium phosphate buffer (pH 7), 7 mM (NH4)2SO4, 2 mM MgSO4, 10 μM FeSO4, 0.4% (wt/vol) glucose, 0.5% (wt/vol) Casamino Acids], or a nutrient rich medium such as Tryptic soy broth supplemented with 1% glucose, in polypropylene microtiter plates (Falcon, United States) in the absence (control) or presence of peptide. Peptide was added at time zero (prior to adding the diluted, overnight cultures) in varying concentrations, and the amount biofilm formation was recorded after 22-46 h incubation for most bacteria. To quantify biofilm growth, planktonic cells were removed and biofilm cells adhering to the side of the wells were stained with crystal violet, and absorbance at 595 nm was measured using a microtiter plate reader (Bio-Tek Instruments Inc., United States).

[2] = system: MCP-1; assay: MCP-1 chemokine induction in human PBMCs, ELISA (Tables 6, 7; FIGS. 6-9, 13); assay type: cell-based; details: for MCP1 production in PBMC: SPOT synthesized peptide alone, ~25 μM, PBMCs from 3 human donors, Table 6
Experimental: Venous blood (20 ml) from healthy volunteers was collected in Vacutainer® collection tubes containing sodium heparin as an anticoagulant (Becton Dickinson, Mississauga, ON) in accordance with UBC ethical approval and guidelines. Blood was diluted 1:1 with complete RPMI 1640 medium and separated by centrifugation over a Ficoll-Paque® Plus (Amersham Biosciences, Piscataway, N.J., USA) density gradient. White blood cells were isolated from the buffy coat, washed twice in PBS and then resuspended in RPMI 1640 complete medium (containing 10% fetal bovine serum), and the number of peripheral blood mononuclear cells (PBMC) was determined by Trypan blue exclusion. PBMCs (5×10^5) were seeded into 12-well tissue culture dishes (Falcon; Becton Dickinson) at 0.75-1×10^6 cells/ml at 37° C. in 5% CO2. The above conditions were chosen to mimic conditions for circulating blood monocytes entering tissues at the site of infection via extravasation.
Following incubation of the cells under various treatment regimens, the tissue culture supernatants were centrifuged at 1000×g for 5 min, then at 10,000×g for 2 min to obtain cell-free samples. Supernatants were aliquoted and then stored at −20° C. prior to assay for various chemokines by capture ELISA (eBioscience and BioSource International Inc., CA, USA respectively)

| Substance | % Residual MRSA biofilm growth compared to untreated control [1] [%] | MCP1 production in PBMC [2] [pg/mL] | MCP1 induction from PBMCs compared to 1018 (in words) ([2]; peptide >95% purity) |
| --- | --- | --- | --- |
| QIIKVVWRAVII-NH2 [MILBFmax-8, QIIKVVWRAVII] | 101 | 56 |  |
| QQVKWWLIRWLA-NH2 [IBFmax-11, QQVKWWLIRWLA] | 93 | 328 |  |
| RARQIRWLRKRV-NH2 [Imin-4, RARQIRWLRKRV] | 102 | 140 |  |
| RQVRVKRWRARW-NH2 [Mmax- 18] |  | 3735 |  |
| RRIIKILLWKLR-NH2 [Peptide 3021, RRIIKILLWKLR] | 70 | 1581 |  |
| RVKAIKWRKIVV-NH2 [Peptide 3012, RVKAIKWRKIVV] | 77 | 6639 | stronger MCP1 inducing abilities than 1018 |
| RVLIKWKKVIVV-NH2 [IBFmax-8, RVLIKWKKVIVV] | 101 | 1235 |  |
| VARWKIIIAKLW-NH2 [BFmax-5, VARWKIIIAKLW] | 98 | 566 |  |
| VIKVLIKRWLKL-NH2 [BFmax-9, VIKVLIKRWLKL] | 58 | 1127 |  |
| VKGAIKRGIWVK-NH2 [Imax- 5] |  | 5194 |  |
| VQRIIWLRVKIV-NH2 [Peptide 3023, VQRIIWLRVKIV] | 98 | 127 |  |
| VQWIQIVVWRKR-NH2 [BFmax-6, VQWIQIVVWRKR] | 57 | 3778 |  |
| VVGLRVRWVRLW-NH2 [Imin-3, VVGLRVRWVRLW] | 96 | 2069 |  |
| WAVRALKVKWAL-NH2 [Imax-20, WAVRALKVKWAL] | 98 | 2005 |  |
| WQGWAKIWVVRI-NH2 [Peptide 3019, WQGWAKIWVVRI] | 100 | 280 |  |
| WVGVIIKWGLKL-NH2 [Peptide 3018, WVGVIIKWGLKL] | 100 | 726 |  |
| WWIKIVVIRVRR-NH2 [IBFmax-13, WWIKIVVIRVRR] | 81 | 575 |  |
